Out of some 270,000 compounds screened, about 620 (0.23%) were called active. The shares of active, inactive and inconclusive entries below differ from those in the screen. Calls follow the shape of the dose curve; as a rule, active = well fitted inhibition curve with a large enough effect in the polarisation, with a control signal flat (not every such curve was filed as active); inconclusive = small, poorly fitted or top-dose-only effect, or effect the other way, or a change in a side signal; inactive = no such curve, though single readings can be large or run the other way; the % refers to the polarisation. Potencies of inconclusive entries are doubtful fits and often do not repeat. “Side channel” marks fits to a control or component signal instead of the main read-out.
What follows are molecules tested against Menin (Homo sapiens) (UniProt O00255) (assay: qHTS Assay for Inhibitors Targeting the Menin-MLL Interaction in MLL Related Leukemias: Competition With Texas Red Labeled MLL-derived Mutant Peptide). Details: fluorescence polarization; FP activity change, negative = inhibition: at 61.6 µM (top of the series).
UniProt O00255, sequence (O00255 whole entry, looked up): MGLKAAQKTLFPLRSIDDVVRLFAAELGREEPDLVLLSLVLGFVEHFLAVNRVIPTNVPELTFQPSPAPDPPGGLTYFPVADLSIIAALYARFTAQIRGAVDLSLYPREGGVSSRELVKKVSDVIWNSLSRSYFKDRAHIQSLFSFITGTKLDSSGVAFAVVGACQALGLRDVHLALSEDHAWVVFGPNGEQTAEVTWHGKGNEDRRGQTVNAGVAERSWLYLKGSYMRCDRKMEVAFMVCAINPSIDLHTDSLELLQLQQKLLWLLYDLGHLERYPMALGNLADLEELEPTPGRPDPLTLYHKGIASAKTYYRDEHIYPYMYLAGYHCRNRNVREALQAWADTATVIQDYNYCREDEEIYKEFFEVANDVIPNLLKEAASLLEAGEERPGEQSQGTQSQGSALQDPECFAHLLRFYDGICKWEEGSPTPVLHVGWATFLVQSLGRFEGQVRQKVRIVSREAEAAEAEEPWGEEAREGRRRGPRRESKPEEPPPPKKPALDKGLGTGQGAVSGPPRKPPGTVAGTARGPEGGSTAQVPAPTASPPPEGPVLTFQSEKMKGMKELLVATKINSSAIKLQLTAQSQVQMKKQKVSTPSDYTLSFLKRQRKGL

For FP activity change, negative = inhibition in this document: % of control where 0% means no effect.
Potency is read from the fitted curve at half-maximal effect; tags tell the direction and shape of the fitted curve or compound fluorescence and quenching.

Row | Compound | Potency | FP activity change, negative = inhibition
1 | O=C(Nc1ccc(Cl)c(Cl)c1)OCCNC(=O)c1cccc(Cl)c1 | inconclusive: 28.2 µM [quencher, side channel, single point] | –
2 | c1csc(-c2csc3nc(CN4CCOCC4)nc(NCc4ccc5c(c4)OCO5)c23)c1 | inconclusive: 3.98 µM [fluorescent, side channel, partial curve] | –
3 | COCCCNC(=O)c1ccc2c(=O)n(Cc3ccc(Cl)cc3)c(=S)[nH]c2c1 | inconclusive: 35.5 µM [fluorescent, side channel, single point] | –
4 | Cc1c(C(=O)Nc2ccc(Nc3ccccc3)cc2)cccc1[N+](=O)[O-] | inconclusive: 15.8 µM [quencher, side channel, partial curve] | –
5 | COc1ccc(N2CCN(C(C)C(=O)N3CCc4ccccc43)CC2)cc1 (centres undefined) | inconclusive: 25.1 µM [inhibitor, single point] | –
6 | O=c1cc(C(F)(F)F)nc(SC/C=C/c2ccccc2)[nH]1 | inconclusive: 39.8 µM [quencher, side channel, single point] | –
7 | Cc1cc(C(=O)CS(=O)(=O)c2ccccc2)cc(C)c1O | inconclusive: 44.7 µM [inhibitor, partial curve] | –
8 | C(=C\c1nc(-c2cccnc2)no1)/c1ccccc1 | inconclusive: 22.4 µM [quencher, side channel, partial curve] | –
9 | COc1cccc([C@@H]2Oc3ccc(OC)cc3C(=O)[C@H]2OC(=O)NCCOc2ccccc2)c1 | – | inactive: 5.7%
10 | c1ccc(-n2nnnc2Sc2ncnc3sc4c(c23)CCCC4)cc1 | inconclusive: 6.31 µM [inhibitor, single point] | –
11 | COc1ccc2c(c1O)C(=O)c1ccccc1C2=O | inconclusive: 2.24 µM [fluorescent, side channel, full curve, poor fit] | –
12 | CC(C)CNC(=O)COC(=O)c1cc(Cl)cc(Cl)c1N | – | inactive: 0.627%
13 | COc1ccc(-c2csc(NC(=O)c3ccccc3NS(=O)(=O)c3ccc(C)cc3)n2)cc1 | inconclusive: 10 µM [quencher, side channel, partial curve] | –
14 | CCCC(=O)N(Cc1cc(=O)[nH]c2ccccc12)c1ccccc1 | inconclusive: 28.2 µM [inhibitor, partial curve] | –
15 | Cc1cccc(/C=N/NC(=O)c2ccc(NC(=O)c3ccc(Cl)cc3)cc2)n1 | inconclusive: 12.6 µM [quencher, side channel, partial curve] | –
16 | NS(=O)(=O)c1ccc(CCNC(=O)CCCCCn2c(=S)[nH]c3ccc(Br)cc3c2=O)cc1 | inconclusive: 39.8 µM [fluorescent, single point] | –
17 | O=C(O)c1ccc(-n2cccc2/C=C2/NC(=O)N(c3cccc(Cl)c3)C2=O)cc1 | – | inactive: 2.89%
18 | CCc1ccc(Nc2n[n+](-c3ccccc3)c(-c3ccc(N(CC)CC)cc3)s2)cc1 | inconclusive: 2.24 µM [fluorescent, side channel, full curve] | –
19 | CN(C)c1ccc(NC(=S)NC23CC4CC(CC(C4)C2)C3)cc1 | inconclusive: 39.8 µM [quencher, single point] | –
20 | O=C1N/C(=N/Nc2ccccc2)S/C1=C\c1ccccc1 | inconclusive: 12.6 µM [quencher, side channel, partial curve] | –

Row | Compound | Potency | FP activity change, negative = inhibition
21 | COCCNC(=O)CN(Cc1ccccc1)S(=O)(=O)c1ccc2nc(C)sc2c1 | inconclusive: 15.8 µM [inhibitor, partial curve] | –
22 | COc1ccc2nc(N=Nc3c(O)ccc4ccccc34)sc2c1 | inconclusive: 22.4 µM [inhibitor, single point] | –
23 | CN(c1ccc(OCC(=O)Nc2nc3ccccc3s2)cc1)S(=O)(=O)c1ccccc1 | inconclusive: 15.8 µM [inhibitor, partial curve] | –
24 | Cc1cc(-c2ccccc2)nc(-c2ccccc2)c1C | inconclusive: 14.1 µM [quencher, side channel, partial curve] | –
25 | CCc1ccccc1NC(=O)NCCN1CCCCC1 | inconclusive: 39.8 µM [inhibitor, single point] | –
26 | COC(=O)c1csc(C(=O)c2c[nH]c3ccccc23)n1 | inconclusive: 39.8 µM [inhibitor, single point] | –
27 | COc1ccc(NS(=O)(=O)c2ccc(N3CCCC3)c(NC(=S)Nc3cccc(C)c3C)c2)cc1 | inconclusive: 35.5 µM [inhibitor, single point] | –
28 | C/C=C/c1ccc(OCC(O)CNCCc2ccc(OC)cc2)c(OC)c1 (centres undefined) | inconclusive: 8.91 µM [inhibitor, partial curve] | –
29 | Cc1cccc(C2Nc3ccccc3C(=O)N2CCc2ccccc2)n1 (centres undefined) | – | inactive: -14.9%
30 | COc1ccccc1-n1c(=S)[nH]c2c(sc(=S)n2-c2ccc(C)cc2C)c1=O | inconclusive: 28.2 µM [inhibitor, single point] | –
31 | COc1ccccc1Nc1nc(-c2sc(N)nc2C)cs1 | inconclusive: 20 µM [quencher, side channel, partial curve] | –
32 | COCCn1c(SCC(=O)Nc2sc(C)c(C)c2C#N)nnc1C(C)C | – | inactive: -1.26%
33 | COc1ccc(/C=C/c2c(-c3ccc(OC)cc3)sc3ccc(N4CCOCC4)cc23)cc1 | inconclusive: 10 µM [quencher, side channel, partial curve] | –
34 | COc1ccc2c(c1OC)C(=O)N1c3cccc(Cl)c3C(=O)OC21 (centres undefined) | inconclusive: 39.8 µM [inhibitor, single point] | –
35 | C=CCS(=O)(=O)N1CCCC(Cc2ccccc2C)(C(=O)OCC)C1 (centres undefined) | inconclusive: 20 µM [inhibitor, single point] | –
36 | COc1ccccc1CCn1c(N)c(C#N)c2nc3ccccc3nc21 | – | inactive: -15.4%
37 | Cc1ccc(Cl)cc1N1CCN(Cc2nnnn2C2CCCCC2)CC1 | inconclusive: 5.62 µM [fluorescent, side channel, partial curve] | –
38 | NC(=O)C1CCN(C2CC(=O)NC2=O)CC1 (centres undefined) | inconclusive: 1.41 µM [inhibitor, full curve, poor fit] | –
39 | COc1ccc(/C=C/N(CCc2ccc(OC)c(OC)c2)C(=O)c2ccccn2)cc1 | inconclusive: 1.26 µM [inhibitor, partial curve] | –

From PubChem BioAssay AID1768 (National Center for Advancing Translational Sciences (NCATS), 2009)
